Laboratory results: the RNAGym collection of RNA variant scans (doi:10.1093/nar/gkz1192)
Read counts are not given, so values of variants with three or more changes are uncertain.

B1: CPEB3 Ribozyme (parent)
chain: UAACAGGGGGCCACAGCAGAAGCGUUCACGUCGCAGCCCCUGUCAGAUUCUGGUGAAUCUGCGAAUUCUGCUGUAUAUCUC

Variants of: B1
Assay: self-cleavage, relative activity (ratio to wild type); higher = more cleavage; in vitro, sequencing
How it was run: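 Barcoded CPEB3 ribozyme mutants, produced by rounds of error-prone PCR, self-cleaved while being transcribed with T7 RNA polymerase for 5 hours at 37°C and during a subsequent 15 min DNase I step before EDTA was added. Sequencing of template-switched cDNA on Illumina gave cleaved and total reads, and DNA sequencing assigned barcodes to variants. Each variant's relative activity is its cleaved/total read fraction divided by the unmutated ribozyme's fraction, averaged across three batches. A variant needed a minimum of 5 reads.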

Row | Variant | self-cleavage
1 | A20G A28G C34U U41C A64G C68G U74A | 0.06
2 | A20G A28G C50U U60C | 0.19
3 | A20G A28G G33U A45G | 0.15
4 | A20G A28G U31A | 0.19
5 | A20G A28G U41C A57G | 0.28
6 | A20G A28G U43A A45G U48C U60C | 0.06
7 | A20G A28G U48A U60C | 0.18
8 | A20G A28G U51C U69C | 0.11
9 | A20G A28G U58A U69A | 0.08
10 | A20G A28G U72A | 0.33
11 | A20G A28U A45G | 0.6
12 | A20G A28U A64G U72C | 0.21
13 | A20G A28U C37U | 0.34
14 | A20G A28U C71U | 0.16
15 | A20G A28U G42A U54G A64U | 0.19
16 | A20G A35G A45U C50U U58G U60G | 0.1
17 | A20G A35G A57G U78C | 1.48
18 | A20G A35G C38A A45G U67C U69C | 0.06
19 | A20G A35G C44A A77G | 1.06
20 | A20G A35G G55C U72C A77G | 1.15
21 | A20G A35G U41A C50A G70A U72A U78C | 0.03
22 | A20G A35G U41C U49C | 0.21
23 | A20G A35G U66C U72C U80A | 1.07
24 | A20G A35U G36A U48C | 0.05

Row | Variant | self-cleavage
25 | A20G A35U U43A G52A | 0.69
26 | A20G A35U U43C A45G U54C | 0.11
27 | A20G A45C G52U | 0.27
28 | A20G A45G A56G C81U | 0.2
29 | A20G A45G A64G U74A | 0.51
30 | A20G A45G A64U A75U | 0.15
31 | A20G A45G A75G | 0.66
32 | A20G A45G U51C U80C | 0.41
33 | A20G A45G U58C U67C | 0.27
34 | A20G A45U A75G | 0.21
35 | A20G A45U U58C A65G U69A | 0.21
36 | A20G A45U U69C | 0.15
37 | A20G A47G A64G | 0.54
38 | A20G A47G A65G | 0.42
39 | A20G A47G U48A A64G U76G A77G | 0.04
40 | A20G A47G U54C U74A A77G | 1.03
41 | A20G A47G U78C | 0.81
42 | A20G A47U A75G U78C | 0.05
43 | A20G A56G A57G U78C | 0.14
44 | A20G A56G U72C | 0.73
45 | A20G A56G U72C U78C | 0.47
46 | A20G A57G A65G U66C | 0.41
47 | A20G A64G C81A | 0.95
48 | A20G A64U U78C | 0.14

Row | Variant | self-cleavage
49 | A20G A65G A77G U78A | 0.27
50 | A20G A65G U69C U72C | 0.51
51 | A20G C23A A56U | 0.06
52 | A20G C23A G70C U80A | 0.07
53 | A20G C23A U31C A45G G73U U80C | 0.04
54 | A20G C23U A28G U54A A77G | 0.06
55 | A20G C23U U25A U26C U67C | 0.1
56 | A20G C27A U41C U60C | 0.08
57 | A20G C27G A28U | 0.27
58 | A20G C27G U48C U51A | 0.14
59 | A20G C27U U54A C68A U78C | 0.15
60 | A20G C29A A45G G55U | 0.14
61 | A20G C29A A56G U58C | 0.23
62 | A20G C29A U41C A45G U48G A65G U80A | 0.07
63 | A20G C29A U51C U72A | 0.14
64 | A20G C29G C38U U41G | 0.17
65 | A20G C29U C40A U60A U67C | 0.12
66 | A20G C32A C37G U54G A65U A77G | 0.07
67 | A20G C32G U54C | 0.09
68 | A20G C32U C38U A47U | 0.07
69 | A20G C32U U48C U72C | 0.16
70 | A20G C32U U80A | 0.31
71 | A20G C34U U41C U43C U48C U69C A77U | 0.05
72 | A20G C34U U51C U67C U78C | 0.22

Row | Variant | self-cleavage
73 | A20G C34U U67A | 0.17
74 | A20G C37G U69C | 0.2
75 | A20G C37G U80C | 0.83
76 | A20G C37U U51C U80C | 0.28
77 | A20G C38G A45G A64G | 0.12
78 | A20G C38U U43A G70A U72C | 0.06
79 | A20G C39G U51A A56U U69C | 0.06
80 | A20G C40A U72A | 0.21
81 | A20G C40U U41G U66A | 0.24
82 | A20G C40U U48A | 0.17
83 | A20G C44G A56G U72C | 0.52
84 | A20G C50G G63C | 0.25
85 | A20G C50G U54A | 0.76
86 | A20G C50U A64G A65G | 0.07
87 | A20G C50U U78C | 0.94
88 | A20G C71U U72C | 0.35
89 | A20G G22A U54C | 0.35
90 | A20G G22U A28G U31C A77G | 0.08
91 | A20G G24A A28U A47U A56U | 0.07
92 | A20G G24A A45G U67A U72C | 0.06
93 | A20G G24A U31A U41A A45U U69C | 0.14
94 | A20G G24A U31G C40A A45U A57G A64U | 0.08
95 | A20G G24A U60C U76C | 0.09
96 | A20G G24C U67C | 0.14

Row | Variant | self-cleavage
97 | A20G G24C U80C | 0.18
98 | A20G G30A G63A A64G U69G | 0.05
99 | A20G G30A G63U U78C | 0.24
100 | A20G G30A U80A | 0.21
101 | A20G G33A U60C U67A U69C | 0.06
102 | A20G G36C U43C U48C A64U U67C | 0.07
103 | A20G G53C U54C | 0.95
104 | A20G U25A A28G U69A U78C | 0.04
105 | A20G U25A A47G A75U | 0.08
106 | A20G U25A A57G | 0.19
107 | A20G U25A C34U U54C | 0.04
108 | A20G U25A U26C U54C U58C U80C | 0.17
109 | A20G U25A U41A A56G | 0.09
110 | A20G U25C A28U A56U U80C | 0.31
111 | A20G U25C A35U U41C A77U | 0.35
112 | A20G U25C A64G U66C | 0.26
113 | A20G U25C A65G U78C | 0.4
114 | A20G U25C C27U A56G | 0.38
115 | A20G U25C C29U U31C G63A | 0.42
116 | A20G U25C C32G A45G A64U U78C | 0.08
117 | A20G U25C C44G A64G U74C U78C | 0
118 | A20G U25C G61A U72C | 0.06
119 | A20G U25C U26G | 0
120 | A20G U25C U31C A64G | 0.27

Row | Variant | self-cleavage
121 | A20G U25C U41C U51A G63A U74C | 0.1
122 | A20G U25C U43C U49A | 0.23
123 | A20G U25C U60C | 0.14
124 | A20G U25C U67C | 0.15
125 | A20G U25G U60A | 0.24
126 | A20G U25G U69A | 0.07
127 | A20G U26A A28G A45G U72C | 0.09
128 | A20G U26A A28G U41C | 0.33
129 | A20G U26A A45C U58C C71U | 0.03
130 | A20G U26A A45G U51C U58C C71G | 0.05
131 | A20G U26A A57G | 0.61
132 | A20G U26A C32A U72C U80A | 0.22
133 | A20G U26A G53U U67C | 0.86
134 | A20G U26A U49A | 0.37
135 | A20G U26A U51C U80A | 0.77
136 | A20G U26C A28G U41A U43C U66C U78C | 0.14
137 | A20G U26C A45U A47G G52C A57G A77G | 0.09
138 | A20G U26C A47G U66C | 0.15
139 | A20G U26C A47U U51A | 0.08
140 | A20G U26C C38A U51C | 0.1
141 | A20G U26C C40U U43C A45G U76A A77C | 0.07
142 | A20G U26C G33U A64G | 0.19
143 | A20G U26C G33U U41C A77G | 0.06
144 | A20G U26C G63C A65U C71A | 0.03

Row | Variant | self-cleavage
145 | A20G U26C U41A U66C A75U U78C | 0.18
146 | A20G U26C U48C U49C | 0.49
147 | A20G U26C U49C A56G A64G | 0.21
148 | A20G U26C U54A A57G A64U | 0.15
149 | A20G U26C U74C | 0.62
150 | A20G U26C U78C U80C C81A | 0.5
151 | A20G U31A A65G | 0.32
152 | A20G U31A C32U U60C A64G | 0.27
153 | A20G U31A U48C U67C | 0.12
154 | A20G U31C A64G | 0.38
155 | A20G U31C C44A U51A U80C | 0.09
156 | A20G U31C U43A U54C | 0.38
157 | A20G U31C U49C U58A U72A U80A | 0.06
158 | A20G U31C U51A C79U U80C | 0.65
159 | A20G U31C U54G | 0.4
160 | A20G U31C U58C | 0.22
161 | A20G U31C U60A | 0.14
162 | A20G U31C U60C | 0.18
163 | A20G U31C U60C U76G | 0.08
164 | A20G U31C U72A | 0.14
165 | A20G U41A A45U C62U | 0.11
166 | A20G U41A A75G | 0.43
167 | A20G U41A C50A | 0.34
